From PubChem BioAssay (NCATS)
This list was built around the results that the source calls inconclusive (neither active nor inactive); the mix of calls is not that of the screen. For part of these data: Potencies beside an inconclusive call are fits to weak or partial responses and may not hold up. Activity calls are given as the source filed them. The call rests on the fitted dose curve; in most records, active means well fitted curve in the direction sought with a large enough effect; inconclusive means small, poorly fitted or top-dose-only effect, or another doubt; inactive means no such curve, though single readings can be large; an effect the other way counts as inactive or inconclusive.

What was measured:
[1] = P-glycoprotein substrates identified in KB-8-5-11 adenocarcinoma cell line, qHTS therapeutic library screen (AID 1346987); further: nearly all actives have a fitted effect of over 65% in size
How it was run: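 KB-8-5-11, a colchicine-selected P-gp-overexpressing KB-3-1 subline, was grown without colchicine for the assay. Cells were seeded at 500 cells/well, dosed in concentration-response and incubated 72 h at 37 degree C, 5% CO2. Viability was read by CellTiter-Glo luminescence.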

CRL-7250 = normal cell line; experiment: Cytotoxic Profiling of Annotated Libraries Using Quantitative High-Throughput Screening (AID 1296008); settings: Five cell lines viability, CellTiter-Glo ATP luminescence, 48-72 h; max response: active compounds read low; further: nearly all actives have a fitted effect of over 60% in size
How it was run: (§1)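 Cytotoxicity was measured as CellTiter-Glo ATP luminescence, read after 10 min at room temperature. Compound treatment of the cells lasted 48 or 72 hr at 37 degrees Celsius in a qHTS format.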

KB-3-1 = experiment: as above; settings: Five cell lines viability, CellTiter-Glo ATP luminescence, 48-72 h; max response: active compounds read low
How it was run: as §1

C33A = experiment: Primary qHTS to identify gynecologic anti-cancer compounds using libraries of approved drugs and bioactive compounds (AID 1345084); settings: Gynecologic cancer cell panel viability, ATPlite luminescence, 48 h; series mostly up to 57.5 µM; further: nearly all actives have a fitted effect of over 55% in size; on activity change, negative = cytotoxicity: on the % scale 0 is the no-effect control and ±100 the full control effect
How it was run: (§2)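 Cytotoxicity screen measuring ATP content by luciferase luminescence. Each compound is applied at five concentrations for 48 h at 37 C with 5% CO2.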

CAOV3 = experiment: as above; settings: Gynecologic cancer cell panel viability, ATPlite luminescence, 48 h; activity change, negative = cytotoxicity: at 57.5 µM (top of the series)
How it was run: as §2

Es-2 = experiment: as above; settings: Gynecologic cancer cell panel viability, ATPlite luminescence, 48 h; series mostly up to 57.5 µM
How it was run: as §2

Hek293T = experiment: as above; settings: Gynecologic cancer cell panel viability, ATPlite luminescence, 48 h, control line for the selectivity index; activity change, negative = cytotoxicity: at 57.5 µM (top of the series) unless noted
How it was run: as §2

OV90 = experiment: as above; settings: Gynecologic cancer cell panel viability, ATPlite luminescence, 48 h; series mostly up to 57.5 µM
How it was run: as §2

SKOV3 = experiment: as above; settings: Gynecologic cancer cell panel viability, ATPlite luminescence, 48 h; series mostly up to 57.5 µM
How it was run: as §2

[2] = test system: Zika virus NS2B-NS3 protease (unlinked complex); experiment: Primary screen GU Rhodamine qHTS for Zika virus inhibitors: Unlinked NS2B-NS3 protease assay (AID 1347159); further: nearly all actives have a fitted effect of over 60% in size; on activity change, negative = inhibition: on the % scale 0 is the no-effect control and ±100 the full control effect
How it was run: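 Noncovalent NS2B hydrophilic domain–NS3 protease domain complex (25 nM) preincubated 15 min at room temperature with compounds (up to 114 microM) in 10 mM Tris-HCl pH 8.0, 0.01% Tween 20; 1.5 microM Rhodamine110 substrate added, fluorescence change over 15 min fitted to Hill equation.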

[3] = test system: Zika virus NS2B-NS3 protease (linked construct); experiment: Primary screen NINDS Rhodamine qHTS for Zika virus inhibitors (AID 1347160); settings: activity change, negative = inhibition: at 57.1 µM (top of the series) unless noted; further: nearly all actives have a fitted effect of over 55% in size; on activity change, negative = inhibition: on the % scale 0 is the no-effect control and ±100 the full control effect
How it was run: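 Purified linked NS2B-NS3 protease (NS2B hydrophilic domain joined to NS3 protease by flexible linker), 25 nM in 10 mM Tris-HCl pH 8.0, 0.01% Tween 20. Compounds titrated, 15 min preincubation at room temperature; 1.5 microM Rhodamine110 substrate, FITC fluorescence change over 15 min.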

[4] = Primary qHTS for inhibitors of nuclear receptor binding SET domain protein 2 (NSD2) in an RCH-ACV wild type WT cells (2C) (AID 1645877); settings: activity change, negative = cell killing: at 44.9 µM (top of the series) unless noted; further: nearly all actives have a fitted effect of over 70% in size
PA-1 = experiment: Primary qHTS to identify gynecologic anti-cancer compounds using libraries of approved drugs and bioactive compounds (AID 1345084); settings: Gynecologic cancer cell panel viability, ATPlite luminescence, 48 h; series mostly up to 57.5 µM; further: nearly all actives have a fitted effect of over 55% in size; on activity change, negative = cytotoxicity: on the % scale 0 is the no-effect control and ±100 the full control effect
How it was run: as §2

Tov-21-G = experiment: as above; settings: Gynecologic cancer cell panel viability, ATPlite luminescence, 48 h; activity change, negative = cytotoxicity: at 57.5 µM (top of the series) unless noted
How it was run: as §2

[5] = Primary qHTS for inhibitors of nuclear receptor binding SET domain protein 2 (NSD2) in an isogenic RCH-ACV NSD2 p.E1099K mutant (9B) (AID 1645876); further: nearly all actives have a fitted effect of over 70% in size
JEG-3 = experiment: Primary qHTS to identify gynecologic anti-cancer compounds using libraries of approved drugs and bioactive compounds (AID 1345084); settings: Gynecologic cancer cell panel viability, ATPlite luminescence, 48 h; series mostly up to 57.5 µM; further: nearly all actives have a fitted effect of over 55% in size
How it was run: as §2

Tov112D = experiment: as above; settings: Gynecologic cancer cell panel viability, ATPlite luminescence, 48 h; series mostly up to 57.5 µM
How it was run: as §2

CASKI = experiment: as above; settings: Gynecologic cancer cell panel viability, ATPlite luminescence, 48 h; series mostly up to 57.5 µM
How it was run: as §2

NIH3T3 = experiment: Cytotoxic Profiling of Annotated Libraries Using Quantitative High-Throughput Screening (AID 1296008); settings: Five cell lines viability, CellTiter-Glo ATP luminescence, 48-72 h; max response: active compounds read low; further: nearly all actives have a fitted effect of over 60% in size
How it was run: as §1

[6] = Primary fluorescence-based thiol-reactive (MSTI) qHTS assay for identification of artifact compounds. (AID 1845221);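 further: thiol-reactive compounds lower the probe fluorescence signal; nearly all actives have a fitted effect of over 65% in size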
How it was run: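 Curve-fitted percent inhibition (4-parameter Hill) derived from fluorescence, Ex 525/Em 598 nm, scaled with Acetyl-MSTI and MSTI; 1 h incubation at room temperature.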
Potency means the concentration at half of the fitted maximal effect; tags describe the fitted curve by direction and shape.

COc1cc2c(cc1NS(=O)(=O)c1ccc(Br)cc1C)n(C)c(=O)n2C
inconclusive: Potency [1] 1.84 µM [inhibitor, full curve] | Potency (CRL-7250) 0.13 µM [inhibitor, full curve, poor fit] | Potency (KB-3-1) 3.66 µM [inhibitor, full curve] | Potency (C33A) 3.55 µM [cytotoxic, partial curve, poor fit] | Potency (Es-2) 15.8 µM [cytotoxic, partial curve] | Potency (Hek293T) 7.94 µM [cytotoxic, full curve] | Potency (OV90) 17.8 µM [cytotoxic, partial curve, poor fit] | Potency (SKOV3) 10 µM [cytotoxic, partial curve, poor fit]
active: Potency (CAOV3) 3.55 µM

C=C(C=O)[C@]1(O)C[C@@]2(C)C(=CC1=O)C=C[C@H](OC(=O)/C=C/C=C/[C@H](C)CC)[C@@H]2C
active: Potency [2] 8.91 µM | Potency [4] 1.59 µM
inconclusive: Potency [1] 14.2 µM [inhibitor, single point] | Potency [3] 17.8 µM [inhibitor, single point] | Potency (CRL-7250) 15.9 µM [inhibitor, single point] | Potency (KB-3-1) 14.2 µM [inhibitor, single point] | Potency (C33A) 20 µM [cytotoxic, single point] | Potency (CAOV3) 20 µM [cytotoxic, single point] | Potency (Hek293T) 17.8 µM [cytotoxic, single point] | Potency (OV90) 12.6 µM [cytotoxic, partial curve] | Potency (PA-1) 20 µM [cytotoxic, single point] | Potency (SKOV3) 14.1 µM [cytotoxic, partial curve, poor fit] | Potency (Tov-21-G) 10 µM [cytotoxic, single point]

CC12CCC(OC3OC(CO)C(O)C(O)C3OC3OC(CO)C(O)C(O)C3O)CC1CCC1C2CCC2(C)/C(=C3/COC(=O)C3)CCC12O (stereo not given)
inconclusive: Potency [1] 4.85 µM [inhibitor, single point] | Potency [5] 9.63 µM [inhibitor, single point] | Potency [4] 9.63 µM [inhibitor, single point] | Potency (CRL-7250) 6.85 µM [inhibitor, single point] | Potency (KB-3-1) 9.68 µM [inhibitor, single point] | Potency (C33A) 10 µM [cytotoxic, single point] | Potency (OV90) 10 µM [rising, partial curve, poor fit] | Potency (Tov-21-G) 12.6 µM [cytotoxic, single point] | Potency (Tov112D) 6.31 µM [cytotoxic, partial curve]
inactive: Potency [2] | Potency [3] | Potency (JEG-3) | Potency (SKOV3)

Cc1ccc(-c2ccc3ncc4c(c3n2)n(C2CCN(C(=O)[C@H](C)O)CC2)c(=O)n4C)cn1
active: Potency [5] 0.0742 µM | Potency (CRL-7250) 0.146 µM | Potency (KB-3-1) 0.116 µM | Potency (C33A) 0.282 µM | Potency (CAOV3) 0.708 µM | Potency (CASKI) 0.794 µM | Potency (Hek293T) 0.355 µM | Potency (JEG-3) 7.08 µM | Potency (PA-1) 0.631 µM | Potency (SKOV3) 1.41 µM | Potency (Tov112D) 0.0891 µM
inconclusive: Potency (Es-2) 0.316 µM [cytotoxic, full curve, poor fit] | Potency (OV90) 0.501 µM [cytotoxic, full curve, poor fit] | Potency (Tov-21-G) 0.1 µM [cytotoxic, full curve, poor fit]

Cc1ccc(C(=O)N2CCN(c3ccc([N+](=O)[O-])cc3)CC2)cc1Cl
inactive: Potency (SKOV3)
active: Potency [5] 12.9 µM
inconclusive: Potency [1] 16.4 µM [inhibitor, partial curve] | Potency (CRL-7250) 29.1 µM [inhibitor, single point] | Potency (KB-3-1) 18.4 µM [inhibitor, partial curve, poor fit] | Potency (NIH3T3) 20.6 µM [inhibitor, partial curve, poor fit]

O=C(Nc1cccnn1)N1CCC(=Cc2cccc(Oc3ccc(C(F)(F)F)cn3)c2)CC1
inactive: Potency (JEG-3)
inconclusive: Potency [1] 9.2 µM [inhibitor, partial curve] | Potency [5] 6.61 µM [inhibitor, full curve] | Potency [4] 5.9 µM [inhibitor, full curve] | Potency (CRL-7250) 29.1 µM [inhibitor, single point] | Potency (KB-3-1) 7.31 µM [inhibitor, partial curve] | Potency (C33A) 17.8 µM [cytotoxic, partial curve] | Potency (CASKI) 39.8 µM [cytotoxic, single point] | Potency (Hek293T) 20 µM [cytotoxic, partial curve] | Potency (OV90) 15.8 µM [cytotoxic, single point] | Potency (PA-1) 7.08 µM [cytotoxic, partial curve] | Potency (SKOV3) 39.8 µM [cytotoxic, single point]

C=C1CO[C@@]2(O[C@H]3CC4C5CC=C6C[C@@H](O)C[C@@H](O[C@@H]7OC[C@H](O)[C@H](O[C@@H]8OC[C@@H](O)[C@H](O)[C@H]8O)[C@H]7O[C@@H]7O[C@@H](C)[C@H](OC(C)=O)[C@@H](OC(C)=O)[C@H]7OC(C)=O)[C@]6(C)C5CC[C@]4(C)[C@@H]3[C@@H]2C)[C@@H](O)[C@H]1OC1OC(C)C(O)C(O)C1O (stereo not given in full)
inactive: activity change, negative = cytotoxicity (Hek293T) -3.45% [at 6.55 µM] | activity change, negative = cytotoxicity (JEG-3) -10.9% [at 6.55 µM]
inconclusive: Potency (CRL-7250) 2.19 µM [inhibitor, partial curve] | Potency (KB-3-1) 4.36 µM [inhibitor, single point] | Potency (C33A) 3.55 µM [cytotoxic, single point] | Potency (SKOV3) 0.178 µM [cytotoxic, single point] | Potency (Tov-21-G) 2 µM [cytotoxic, partial curve]
active: Potency (OV90) 2.82 µM | Potency (Tov112D) 3.55 µM

CC(C)(C)c1ccc(-c2nc3ccccc3[nH]2)cc1
active: Potency (C33A) 1.26 µM | Potency (CAOV3) 0.891 µM | Potency (CASKI) 1.12 µM | Potency (Es-2) 1.58 µM | Potency (Hek293T) 2.24 µM | Potency (JEG-3) 1.78 µM | Potency (OV90) 1.41 µM | Potency (SKOV3) 1 µM | Potency (Tov-21-G) 1.41 µM
inconclusive: Potency [1] 7.09 µM [inhibitor, partial curve] | Potency [2] 39.8 µM [inhibitor, single point] | Potency (CRL-7250) 14.2 µM [inhibitor, single point] | Potency (KB-3-1) 7.96 µM [inhibitor, single point]
inactive: Potency [6]

Cc1cc(-c2cc(O)ccc2Cl)cc2nnc(Nc3ccc(OCCN4CCCC4)cc3)nc12
active: Potency [5] 3.25 µM | Potency [6] 3.77 µM | Potency (KB-3-1) 4.61 µM | Potency (CAOV3) 11.2 µM | Potency (SKOV3) 28.2 µM
inconclusive: Potency [2] 39.8 µM [inhibitor, partial curve, poor fit] | Potency (CRL-7250) 29.1 µM [inhibitor, single point] | Potency (C33A) 39.8 µM [cytotoxic, single point] | Potency (CASKI) 39.8 µM [cytotoxic, single point] | Potency (Es-2) 39.8 µM [cytotoxic, single point] | Potency (Hek293T) 39.8 µM [cytotoxic, single point] | Potency (JEG-3) 39.8 µM [cytotoxic, single point] | Potency (OV90) 39.8 µM [cytotoxic, single point] | Potency (PA-1) 31.6 µM [cytotoxic, single point] | Potency (Tov-21-G) 31.6 µM [cytotoxic, single point] | Potency (Tov112D) 39.8 µM [cytotoxic, single point]

Cc1nc2ccc(-n3ncc(C(=O)c4cc5ccccc5[nH]4)c3N)cc2[nH]1
active: Potency (Hek293T) 14.1 µM | Potency (OV90) 14.1 µM
inconclusive: Potency [1] 14.6 µM [inhibitor, partial curve] | Potency (CRL-7250) 3.66 µM [inhibitor, full curve] | Potency (KB-3-1) 5.8 µM [inhibitor, partial curve] | Potency (C33A) 39.8 µM [cytotoxic, single point] | Potency (CAOV3) 39.8 µM [cytotoxic, single point] | Potency (CASKI) 12.6 µM [cytotoxic, partial curve] | Potency (Es-2) 20 µM [cytotoxic, partial curve] | Potency (JEG-3) 31.6 µM [cytotoxic, single point] | Potency (PA-1) 15.8 µM [cytotoxic, partial curve, poor fit] | Potency (SKOV3) 35.5 µM [cytotoxic, single point] | Potency (Tov112D) 6.31 µM [cytotoxic, partial curve, poor fit]
inactive: Potency [2]
